Experiments:
[1] = target: T1, Amine oxidase [flavin-containing] A (Homo sapiens, UniProt P21397); conditions: bti-tn-5b1-4
T1 sequence (P21397 whole entry): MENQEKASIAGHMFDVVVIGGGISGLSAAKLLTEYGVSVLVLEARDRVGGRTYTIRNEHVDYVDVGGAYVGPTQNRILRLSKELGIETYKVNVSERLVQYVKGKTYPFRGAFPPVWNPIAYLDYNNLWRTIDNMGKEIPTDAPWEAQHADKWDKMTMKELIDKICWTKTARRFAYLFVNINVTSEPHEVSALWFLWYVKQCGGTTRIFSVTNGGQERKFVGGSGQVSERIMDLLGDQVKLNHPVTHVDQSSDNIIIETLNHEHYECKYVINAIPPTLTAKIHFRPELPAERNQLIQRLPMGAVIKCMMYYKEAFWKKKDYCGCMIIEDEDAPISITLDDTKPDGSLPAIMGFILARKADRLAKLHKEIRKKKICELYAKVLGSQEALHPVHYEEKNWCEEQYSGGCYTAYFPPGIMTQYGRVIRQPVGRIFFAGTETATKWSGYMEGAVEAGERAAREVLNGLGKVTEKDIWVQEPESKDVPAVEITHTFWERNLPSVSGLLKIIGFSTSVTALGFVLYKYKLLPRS

[2] = target: T1, Amine oxidase [flavin-containing] A; experiment: biochemical

| SMILES | IC50 [1] [µM] | IC50 [2] [µM] |
| --- | --- | --- |
| COc1ccc(-c2csc(NN=C3CCC(C)CC3)n2)cc1 (stereo unspecified) | 5.76 | – |
| COc1ccc(-c2csc(N/N=C3\CCCCC3C)n2)cc1 (stereo unspecified) | – | 2.76 |
| CC1CCCC/C1=N\Nc1nc(-c2ccc(Cl)cc2Cl)cs1 (stereo unspecified) | – | 44.7 |
| Fc1ccc(-c2csc(NN=C3CCCCC3)n2)cc1 | – | 1.75 |
| CC1CCCC/C1=N\Nc1nc(-c2ccccc2)cs1 (stereo unspecified) | – | 41.2 |
| C[C@@H]1CCCC/C1=N\Nc1nc(-c2ccc([N+](=O)[O-])cc2)cs1 | – | 44 |
| Clc1ccc(-c2csc(NN=C3CCCCC3)n2)cc1 | – | 2.91 |
| O=[N+]([O-])c1ccc(-c2csc(NN=C3CCCCC3)n2)cc1 | – | 24.2 |
| N#Cc1ccc(-c2csc(NN=C3CCCCC3)n2)cc1 | – | 4.84 |
| C[C@H]1CCCC/C1=N\Nc1nc(-c2ccc([N+](=O)[O-])cc2)cs1 | – | 42.3 |
| CC1CCC(=NNc2nc(-c3ccc(Cl)cc3)cs2)CC1 (stereo unspecified) | 15.2 | – |

Source: ChEMBL document CHEMBL1250430, “Synthesis, semipreparative HPLC separation, biological evaluation, and 3D-QSAR of hydrazothiazole derivatives as human monoamine oxidase B inhibitors” (Bioorg Med Chem, 2010)
